Experimental data as given in publication PMC6029351.
These are yes or no findings as the source states them, for the method shown. Binding seen in cells or lysates may run through a third protein. Some results given as binding are weak or reduced against the parent protein; the word gives no strength.

Chains of the proteins cited; added tags and fusions are not shown. Lines headed by an entry give the natural chain unless they say otherwise; changes in a name come on top. A line that says so, or that is headed by a name, gives the form on record, which may keep a tag or linker.
NLS-Nm23-H1 (Nm23-H1 with nuclear located sequence) (P15531, form named): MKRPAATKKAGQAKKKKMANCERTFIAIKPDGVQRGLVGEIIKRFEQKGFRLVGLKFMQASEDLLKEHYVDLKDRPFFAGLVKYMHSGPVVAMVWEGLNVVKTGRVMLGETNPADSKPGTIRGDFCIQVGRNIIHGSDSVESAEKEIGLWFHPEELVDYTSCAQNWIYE
UniProt Q92878: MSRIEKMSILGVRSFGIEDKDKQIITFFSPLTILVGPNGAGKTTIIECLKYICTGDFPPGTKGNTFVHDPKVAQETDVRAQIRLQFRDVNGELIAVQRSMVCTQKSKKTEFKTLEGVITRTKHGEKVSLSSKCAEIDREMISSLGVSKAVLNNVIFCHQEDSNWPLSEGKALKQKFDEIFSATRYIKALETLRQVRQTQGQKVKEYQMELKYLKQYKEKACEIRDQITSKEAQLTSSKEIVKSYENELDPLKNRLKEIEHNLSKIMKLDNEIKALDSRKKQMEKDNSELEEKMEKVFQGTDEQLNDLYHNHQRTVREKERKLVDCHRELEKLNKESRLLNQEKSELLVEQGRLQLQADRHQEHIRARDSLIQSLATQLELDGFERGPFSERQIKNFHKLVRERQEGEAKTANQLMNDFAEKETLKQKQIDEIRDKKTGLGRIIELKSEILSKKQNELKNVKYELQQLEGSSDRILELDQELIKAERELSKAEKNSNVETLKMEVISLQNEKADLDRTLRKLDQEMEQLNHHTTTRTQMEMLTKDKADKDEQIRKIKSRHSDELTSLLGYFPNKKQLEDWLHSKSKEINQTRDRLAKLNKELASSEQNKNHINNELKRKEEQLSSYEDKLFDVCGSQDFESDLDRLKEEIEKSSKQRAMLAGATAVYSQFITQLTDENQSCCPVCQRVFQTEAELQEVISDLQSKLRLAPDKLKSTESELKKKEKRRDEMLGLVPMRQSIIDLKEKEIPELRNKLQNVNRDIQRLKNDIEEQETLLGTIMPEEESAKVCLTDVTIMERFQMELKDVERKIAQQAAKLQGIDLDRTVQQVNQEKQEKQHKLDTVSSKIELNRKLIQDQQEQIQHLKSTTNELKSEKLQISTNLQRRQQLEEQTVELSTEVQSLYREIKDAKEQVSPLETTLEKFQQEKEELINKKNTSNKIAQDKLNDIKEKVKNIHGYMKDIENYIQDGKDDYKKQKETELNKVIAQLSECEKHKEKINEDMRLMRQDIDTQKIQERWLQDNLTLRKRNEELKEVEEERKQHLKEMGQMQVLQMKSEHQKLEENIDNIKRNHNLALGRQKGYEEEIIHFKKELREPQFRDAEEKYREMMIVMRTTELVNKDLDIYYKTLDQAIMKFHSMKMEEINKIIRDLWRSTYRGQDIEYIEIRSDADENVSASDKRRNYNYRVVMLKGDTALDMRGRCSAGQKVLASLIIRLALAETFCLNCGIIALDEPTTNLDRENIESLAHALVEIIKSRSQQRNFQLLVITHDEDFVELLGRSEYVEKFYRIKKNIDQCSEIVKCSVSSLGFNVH
UniProt P13010: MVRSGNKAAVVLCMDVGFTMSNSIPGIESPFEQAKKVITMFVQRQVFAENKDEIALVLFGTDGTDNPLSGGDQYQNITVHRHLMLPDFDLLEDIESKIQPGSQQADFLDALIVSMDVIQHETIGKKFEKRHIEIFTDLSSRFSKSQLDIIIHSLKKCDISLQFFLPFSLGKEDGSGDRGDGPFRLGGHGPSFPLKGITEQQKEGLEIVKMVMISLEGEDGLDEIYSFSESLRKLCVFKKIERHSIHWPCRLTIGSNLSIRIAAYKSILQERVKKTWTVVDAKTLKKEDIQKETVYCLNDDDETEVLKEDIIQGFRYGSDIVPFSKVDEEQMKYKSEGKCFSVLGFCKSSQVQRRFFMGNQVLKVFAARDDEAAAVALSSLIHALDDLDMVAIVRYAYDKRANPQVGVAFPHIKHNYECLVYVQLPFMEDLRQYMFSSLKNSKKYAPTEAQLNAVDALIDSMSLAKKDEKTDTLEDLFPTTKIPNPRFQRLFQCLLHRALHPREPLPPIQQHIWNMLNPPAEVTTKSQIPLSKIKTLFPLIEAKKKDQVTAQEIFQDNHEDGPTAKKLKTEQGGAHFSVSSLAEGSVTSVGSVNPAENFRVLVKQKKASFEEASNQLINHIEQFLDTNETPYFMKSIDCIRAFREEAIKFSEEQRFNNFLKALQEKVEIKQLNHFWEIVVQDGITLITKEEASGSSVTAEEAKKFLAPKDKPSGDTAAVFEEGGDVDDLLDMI
UniProt P78527: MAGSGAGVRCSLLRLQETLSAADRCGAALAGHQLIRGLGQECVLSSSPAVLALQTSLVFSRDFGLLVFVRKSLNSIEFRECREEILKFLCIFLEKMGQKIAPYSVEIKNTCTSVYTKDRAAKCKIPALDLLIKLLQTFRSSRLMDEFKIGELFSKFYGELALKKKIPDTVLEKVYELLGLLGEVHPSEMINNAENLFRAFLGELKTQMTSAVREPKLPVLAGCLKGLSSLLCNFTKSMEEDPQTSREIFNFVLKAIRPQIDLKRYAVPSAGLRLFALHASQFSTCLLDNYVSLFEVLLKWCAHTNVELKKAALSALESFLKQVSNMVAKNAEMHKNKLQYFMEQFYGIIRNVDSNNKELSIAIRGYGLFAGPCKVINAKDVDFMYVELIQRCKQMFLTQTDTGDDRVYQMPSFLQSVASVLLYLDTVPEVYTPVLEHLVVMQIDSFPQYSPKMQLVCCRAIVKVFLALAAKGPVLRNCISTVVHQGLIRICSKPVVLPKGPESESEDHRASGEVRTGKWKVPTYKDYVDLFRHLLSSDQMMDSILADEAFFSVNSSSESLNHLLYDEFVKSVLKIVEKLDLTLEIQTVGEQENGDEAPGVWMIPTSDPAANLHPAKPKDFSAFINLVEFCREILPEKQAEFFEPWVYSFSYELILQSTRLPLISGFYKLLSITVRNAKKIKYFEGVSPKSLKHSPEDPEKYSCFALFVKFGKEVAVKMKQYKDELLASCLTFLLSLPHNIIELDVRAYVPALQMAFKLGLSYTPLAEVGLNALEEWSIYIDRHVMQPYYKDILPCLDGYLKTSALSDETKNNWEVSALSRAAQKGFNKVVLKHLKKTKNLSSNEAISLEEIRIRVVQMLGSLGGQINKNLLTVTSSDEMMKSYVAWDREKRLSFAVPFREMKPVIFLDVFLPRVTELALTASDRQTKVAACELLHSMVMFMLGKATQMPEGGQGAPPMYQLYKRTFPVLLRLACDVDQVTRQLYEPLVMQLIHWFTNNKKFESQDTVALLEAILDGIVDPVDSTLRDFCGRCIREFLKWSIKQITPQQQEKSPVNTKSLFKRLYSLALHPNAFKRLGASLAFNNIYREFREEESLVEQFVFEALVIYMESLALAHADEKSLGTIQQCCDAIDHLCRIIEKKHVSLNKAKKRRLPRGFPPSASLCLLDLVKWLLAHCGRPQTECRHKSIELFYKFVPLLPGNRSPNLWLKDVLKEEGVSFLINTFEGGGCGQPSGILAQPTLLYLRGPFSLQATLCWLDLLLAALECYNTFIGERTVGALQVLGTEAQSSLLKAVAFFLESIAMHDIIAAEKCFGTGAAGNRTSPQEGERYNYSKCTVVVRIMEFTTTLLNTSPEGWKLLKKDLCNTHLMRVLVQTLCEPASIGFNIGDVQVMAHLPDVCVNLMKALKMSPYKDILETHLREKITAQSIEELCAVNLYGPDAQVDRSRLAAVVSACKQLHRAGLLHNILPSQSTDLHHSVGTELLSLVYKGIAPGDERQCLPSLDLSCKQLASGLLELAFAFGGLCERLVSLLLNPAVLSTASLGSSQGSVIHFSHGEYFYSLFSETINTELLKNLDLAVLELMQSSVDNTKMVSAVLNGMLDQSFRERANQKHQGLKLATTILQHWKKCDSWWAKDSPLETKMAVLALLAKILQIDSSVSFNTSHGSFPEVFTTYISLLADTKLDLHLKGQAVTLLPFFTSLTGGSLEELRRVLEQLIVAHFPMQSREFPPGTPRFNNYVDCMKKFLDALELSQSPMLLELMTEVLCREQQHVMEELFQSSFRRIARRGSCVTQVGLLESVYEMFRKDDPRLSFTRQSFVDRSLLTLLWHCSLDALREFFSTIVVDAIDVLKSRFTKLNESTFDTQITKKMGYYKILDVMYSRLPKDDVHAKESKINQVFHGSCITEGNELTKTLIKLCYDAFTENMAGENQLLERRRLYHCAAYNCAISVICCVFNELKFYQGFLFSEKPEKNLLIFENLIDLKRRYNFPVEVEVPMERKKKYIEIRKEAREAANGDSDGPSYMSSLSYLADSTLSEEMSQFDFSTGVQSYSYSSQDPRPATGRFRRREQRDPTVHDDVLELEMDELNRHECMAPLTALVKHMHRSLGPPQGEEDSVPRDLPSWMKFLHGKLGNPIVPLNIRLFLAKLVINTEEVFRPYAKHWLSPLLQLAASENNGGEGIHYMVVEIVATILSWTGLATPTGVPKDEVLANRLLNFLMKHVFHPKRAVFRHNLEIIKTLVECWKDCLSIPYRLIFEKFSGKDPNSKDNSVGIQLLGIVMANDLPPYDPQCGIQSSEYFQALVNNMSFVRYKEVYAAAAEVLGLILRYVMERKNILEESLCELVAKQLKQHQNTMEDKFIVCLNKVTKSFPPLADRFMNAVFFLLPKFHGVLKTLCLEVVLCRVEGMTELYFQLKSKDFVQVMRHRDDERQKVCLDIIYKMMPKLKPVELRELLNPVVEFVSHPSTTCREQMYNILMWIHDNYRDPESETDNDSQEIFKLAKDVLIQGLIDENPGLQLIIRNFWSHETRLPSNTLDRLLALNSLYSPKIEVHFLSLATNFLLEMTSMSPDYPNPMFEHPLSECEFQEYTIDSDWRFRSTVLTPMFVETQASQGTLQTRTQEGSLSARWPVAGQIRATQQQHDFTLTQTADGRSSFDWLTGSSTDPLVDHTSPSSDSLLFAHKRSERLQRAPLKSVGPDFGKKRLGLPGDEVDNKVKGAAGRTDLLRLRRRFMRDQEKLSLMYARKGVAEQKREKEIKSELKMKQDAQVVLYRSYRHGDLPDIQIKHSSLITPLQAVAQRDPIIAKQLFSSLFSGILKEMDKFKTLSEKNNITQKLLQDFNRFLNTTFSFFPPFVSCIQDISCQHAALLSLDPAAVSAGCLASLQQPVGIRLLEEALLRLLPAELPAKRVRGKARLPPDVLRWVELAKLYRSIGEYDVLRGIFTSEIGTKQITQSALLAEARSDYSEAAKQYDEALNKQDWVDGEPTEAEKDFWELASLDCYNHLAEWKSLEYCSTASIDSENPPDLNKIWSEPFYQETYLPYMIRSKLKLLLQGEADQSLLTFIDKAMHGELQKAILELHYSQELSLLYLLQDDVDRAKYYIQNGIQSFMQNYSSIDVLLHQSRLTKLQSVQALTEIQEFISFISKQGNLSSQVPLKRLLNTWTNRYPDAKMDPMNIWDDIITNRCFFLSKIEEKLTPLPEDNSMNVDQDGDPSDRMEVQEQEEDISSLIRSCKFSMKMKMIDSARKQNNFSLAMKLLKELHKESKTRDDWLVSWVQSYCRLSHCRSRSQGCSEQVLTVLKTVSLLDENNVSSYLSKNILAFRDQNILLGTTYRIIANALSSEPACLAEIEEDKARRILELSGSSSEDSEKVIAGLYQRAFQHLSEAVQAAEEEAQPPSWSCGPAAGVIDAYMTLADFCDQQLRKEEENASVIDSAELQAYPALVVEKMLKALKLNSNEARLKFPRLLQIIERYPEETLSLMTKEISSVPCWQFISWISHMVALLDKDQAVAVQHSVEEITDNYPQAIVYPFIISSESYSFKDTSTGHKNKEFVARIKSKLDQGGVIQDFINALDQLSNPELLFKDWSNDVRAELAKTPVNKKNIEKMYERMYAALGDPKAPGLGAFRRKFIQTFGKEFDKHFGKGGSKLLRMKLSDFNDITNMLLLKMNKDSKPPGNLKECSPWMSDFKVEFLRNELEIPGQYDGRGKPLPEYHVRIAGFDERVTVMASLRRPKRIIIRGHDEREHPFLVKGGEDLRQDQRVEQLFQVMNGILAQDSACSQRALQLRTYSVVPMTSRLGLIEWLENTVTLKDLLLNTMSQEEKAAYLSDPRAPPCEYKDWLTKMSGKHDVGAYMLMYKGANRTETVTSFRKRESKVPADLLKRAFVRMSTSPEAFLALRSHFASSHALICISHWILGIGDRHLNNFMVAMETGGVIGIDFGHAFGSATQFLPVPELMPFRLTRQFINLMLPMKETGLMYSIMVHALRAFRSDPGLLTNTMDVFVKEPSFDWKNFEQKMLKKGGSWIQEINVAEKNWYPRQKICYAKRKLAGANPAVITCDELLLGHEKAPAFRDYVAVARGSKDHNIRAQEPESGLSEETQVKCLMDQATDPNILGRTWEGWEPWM

Assays:
[1] = biological target: NLS-Nm23-H1 (Nm23-H1 with nuclear located sequence) (human) (UniProt P15531); test: co-IP; A549-nNm23-H1 cells before irradiation (0 h); 200 ug cell protein with 5 ug anti-Nm23-H1 monoclonal antibody 12 h at 4 °C, protein G agarose 4 h at 4 °C; Western blot for NBS1, RAD50, MRE11, Ku80, DNA-PKcs; IgG as control
[2] = biological target: NLS-Nm23-H1 (Nm23-H1 with nuclear located sequence) (human) (UniProt P15531); test: co-IP; A549-nNm23-H1 cells collected 8 h after 8 Gy X-rays; 200 ug cell protein with 5 ug anti-Nm23-H1 monoclonal antibody 12 h at 4 °C, protein G agarose 4 h at 4 °C; Western blot for NBS1, RAD50, MRE11, Ku80, DNA-PKcs; IgG as control

Substance | binding [1] | binding [2]
NBS1 (from UniProt O60934 1-754) | no binding (condition: before irradiation (0 h)) | binds
RAD50 (from UniProt Q92878 1-1312) | no binding (condition: before irradiation (0 h)) | binds
X-ray repair cross-complementing 5 (XRCC5, also known as Ku80) (from UniProt P13010 1-732) | no binding (condition: before irradiation (0 h)) | binds
catalytic polypeptide of DNA-activated protein kinase (PRKDC, also known as DNA-PKcs) (from UniProt P78527 1-4128) | no binding | no binding
